# Assay results from publication PMC4336329 (PLoS ONE, 2015).
# The whole screen tested about 310,000 compounds, of which about 2,200 (0.71%) showed an effect of 50% or more. The effect is printed as a negative number. Some of the results follow.
# Target: human ether-à-go-go-related gene (hERG) potassium channel (human, UniProt Q12809)
# Assay: primary screen, population patch clamp on CHO cells stably expressing hERG
# human ether-à-go-go-related gene (hERG) potassium channel, sequence (Q12809 whole entry, looked up): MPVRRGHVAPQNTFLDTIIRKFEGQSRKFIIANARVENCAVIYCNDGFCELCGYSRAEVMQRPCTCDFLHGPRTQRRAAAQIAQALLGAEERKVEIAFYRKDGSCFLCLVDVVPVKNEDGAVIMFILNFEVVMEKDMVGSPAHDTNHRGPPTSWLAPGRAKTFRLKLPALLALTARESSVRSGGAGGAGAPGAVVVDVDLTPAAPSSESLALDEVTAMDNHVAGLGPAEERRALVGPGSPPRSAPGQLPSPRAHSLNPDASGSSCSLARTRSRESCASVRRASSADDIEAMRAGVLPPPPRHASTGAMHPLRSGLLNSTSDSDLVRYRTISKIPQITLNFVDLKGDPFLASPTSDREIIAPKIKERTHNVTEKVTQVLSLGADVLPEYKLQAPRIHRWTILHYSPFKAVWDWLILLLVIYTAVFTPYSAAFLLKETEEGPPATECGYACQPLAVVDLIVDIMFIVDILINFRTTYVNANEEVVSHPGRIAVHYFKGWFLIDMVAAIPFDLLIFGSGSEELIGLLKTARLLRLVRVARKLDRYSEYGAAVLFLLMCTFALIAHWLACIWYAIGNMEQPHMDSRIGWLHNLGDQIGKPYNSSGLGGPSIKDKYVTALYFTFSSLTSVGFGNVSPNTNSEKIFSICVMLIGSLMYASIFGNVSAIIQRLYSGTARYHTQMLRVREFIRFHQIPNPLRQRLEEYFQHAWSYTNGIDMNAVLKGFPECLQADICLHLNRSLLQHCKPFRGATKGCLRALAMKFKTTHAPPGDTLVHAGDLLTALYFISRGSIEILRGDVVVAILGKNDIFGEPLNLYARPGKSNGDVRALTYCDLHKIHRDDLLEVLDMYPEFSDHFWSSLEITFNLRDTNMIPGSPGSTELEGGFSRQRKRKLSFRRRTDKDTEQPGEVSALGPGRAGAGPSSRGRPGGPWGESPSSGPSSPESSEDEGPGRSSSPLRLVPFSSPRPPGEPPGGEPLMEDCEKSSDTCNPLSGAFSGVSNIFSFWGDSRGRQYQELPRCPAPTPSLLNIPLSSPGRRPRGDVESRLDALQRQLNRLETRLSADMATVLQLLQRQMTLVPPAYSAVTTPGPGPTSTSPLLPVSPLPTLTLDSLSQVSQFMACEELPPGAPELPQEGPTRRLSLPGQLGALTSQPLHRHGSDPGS
row,Compound,"hERG current change (%, negative = inhibition) at 1uM [%]"
1,O=C(N/C(=C\c1ccccc1)C(=O)N1CCOCC1)c1ccccc1Br,22.1
2,Cc1ccccc1Cn1nc(C)c(NC(=O)/C=C/c2cnn(C)c2C)c1C,10.5
3,O=c1[nH]c(CSc2nnc(-c3cccnc3)n2C2CCCCC2)nc2ccccc12,12.1
4,CC1CCCCN1c1nc2nonc2nc1N1CCCCC1C (stereo not shown),-3.06
5,O=C1C=C(O)c2c(O)cc(O)c(O)c2C1=O,19.5
6,CCCN1C(=O)C2(C(C(=O)c3ccc(C)o3)=C(O)C(=O)N2CCCN2CCOCC2)c2ccccc21 (stereo not shown),2.89
7,COc1ccc(C(=O)Nc2ccc3c(c2)OCCO3)cc1[N+](=O)[O-],11.3
8,CC1=C(C(=O)Nc2ccccc2)C(c2ccco2)C(C#N)=C(SCC(=O)OC(C)C)N1 (stereo not shown),0.326
9,COc1ccc(OC)c(S(=O)(=O)N2CCC(NC(=O)c3ccccc3)CC2)c1,20
10,CC1=C(/C=C/C(C)=C/C=C/C(C)=C/C(=O)Nc2ccc(O)cc2)C(C)(C)CCC1,17.7
11,C=CCSC1=NNC(c2ccc(C(C)(C)C)cc2)=NN1,0.984
12,COc1cc(OC)cc(C(=O)Nc2ccc3nc4n(c(=O)c3c2)CCCC4)c1,17.5
13,COC(=O)C1=C(c2ccc(OC(F)(F)F)cc2)C[C@@H]2CC[C@H]1N2C(=O)N1CCC(O)CC1,-0.247
14,Cc1ccnc(NC(=O)c2ccc(S(=O)(=O)NCc3ccco3)cc2)c1,15.3
15,Cc1cccc(/C=N/NC(=O)c2cccc(Cl)c2)n1,8.95
16,O=C(NCCCN1CCOCC1)c1cc(-c2cccs2)on1,-7.51
17,COc1ccc(NC(=O)CN2CCCCC2)c([N+](=O)[O-])c1,8.66
18,Cc1cc(Br)c(NC(=O)COC(=O)CSc2nnc(-c3ccc(Cl)cc3)o2)c(Br)c1,11
19,CC(=O)C1=C(O)C(=O)N(Cc2ccccc2)C1c1cccs1 (stereo not shown),6.06
20,C(#Cc1ccccc1)C[N+]1(CC#Cc2ccccc2)CCCC1.[Br-],-17.4
21,Cc1ccc(C(=O)Nc2ccc(S(=O)(=O)Nc3cnc4ccccc4n3)cc2)cc1,14
22,CSCCC(NC(=O)c1ccco1)C(=O)Nc1cc(C)ccn1 (stereo not shown),-28.3

row,Compound,"hERG current change (%, negative = inhibition) at 1uM [%]"
1,O=C(NC1CCCC1)C(c1cccnc1)N(C(=O)c1ccco1)c1cccc(F)c1 (stereo not shown),19.1
2,CCNC(=O)COC(=O)c1csc2c1CCCC2,15.4
3,COc1ccc(CCNC(=O)CSc2nc3c(c(=O)n(C)c(=O)n3C)n2C(C)C)cc1OC,-14.5
4,Cc1ccc(S(=O)(=O)N/N=C/c2cc([N+](=O)[O-])ccc2O)cc1[N+](=O)[O-],11.5
5,COC(=O)c1ccc(NS(=O)(=O)c2ccc3c(c2)oc(=O)n3C)cc1,5.99
6,COc1ccc(S(=O)(=O)N2CCCCCC2)cc1C(=O)Nc1ccccn1,5.18
7,CC(C)C[C@@H](C(=O)O)N(Cc1cccc(CN([C@@H](CC(C)C)C(=O)O)S(C)(=O)=O)c1)S(C)(=O)=O,6.31
8,COc1cc2c(cc1OC)CN(C(=O)CCCN1C(=O)c3ccccc3C1=O)CC2,6.77
9,N#Cc1c(NC(=O)C2C3C=CC(C3)C2C(=O)O)sc2c1CCCCC2 (stereo not shown),12.6
10,COc1ccccc1NC(=O)N1CCC(C(=O)c2ccc(F)cc2)CC1,12.9
11,O=C(Cn1cnc2c(nnn2Cc2ccc(Cl)cc2)c1=O)c1ccccc1,11.2
12,C=CC[n+]1c(-c2ccc(Cl)cc2Cl)csc1Nc1c(C)n(C)n(-c2ccccc2)c1=O.[Cl-],12.6
13,O=C1c2ccccc2C(=O)c2c1cccc2N1CCCC1,8.54
14,CCCCNC(=O)CCCCC(=O)N/N=C/c1cccc(Cl)c1,7.51
15,Cc1ccc(NC(=O)c2ccccc2-c2ccccc2C(=O)O)cc1,13.4
16,CCCn1c(=O)n(C)c(=O)c2c(SCc3cc(C(C)=O)ccc3OCC)nc(C3CC3)nc21,6.55
17,Cc1ccc(/C=N/NC(=O)Nc2ccccc2)o1,13.6
18,COc1ccc(N(C=O)C(C(=O)Nc2c(C)cccc2C)c2ccccc2)cc1 (stereo not shown),1.19
19,O=C(Nc1nonc1-c1ccc(F)cc1)c1ccco1,0.404
20,ClC1=C(Cl)C(Cl)=C(Cl)C1=C/C=C/c1ccccc1,9.93
21,COC(=O)C(CCSC)NC(=O)Cn1ncc2c(=O)oc3ccc(C)cc3c21 (stereo not shown),6.22
